Experimental data as given in PMC5404542, “In Vitro and In Vivo Antifungal Profile of a Novel and Long-Acting Inhaled Azole, PC945, on Aspergillus fumigatus Infection” (Antimicrobial Agents and Chemotherapy, 2017).

Tests used:
[1] = test system: A. fumigatus strains (NCPF2010, AF294, AF293, AF72, AF91, TR34/L98H); conditions: for IC50 / IC90: Aspergillus fumigatus; for IC90 (OD): TR34/L98H mutation
[2] = test system: four itraconazole-susceptible A. fumigatus strains (ATCC 1028, ATCC 10894, ATCC 13073, ATCC 16424); test: Antifungal activity by CLSI methodology; conditions: for MIC50 / MIC: Aspergillus fumigatus; for MIC50: ATCC1028|ATCC10894|ATCC13073|ATCC16424, read-out: MIC50, Median; for MIC: ATCC1028|ATCC10894|ATCC13073|ATCC16424, read-out: MIC, Median
[3] = NCPF2010, 48 h, read-out: IC50 (OD), strain AF72, G54E mutation, 48 h, 0.5% BSA
[4] = NCPF2010, 48 h, read-out: IC50 (OD), strain AF91, M220V mutation, 48 h, 0.5% BSA
[5] = NCPF2010, 48 h, read-out: IC50 (OD), strain AF293, no resistance mechanism, 48 h, 0.5% BSA
[6] = NCPF2010, 48 h, read-out: IC50 (OD), strain AF294, no resistance mechanism, 48 h, 0.5% BSA
[7] = NCPF2010, 48 h, read-out: IC50 (OD), strain NCPF2010, no resistance mechanism, 48 h, 0.5% BSA
[8] = NCPF2010, 48 h, read-out: IC50 (OD), strain TR34/L98H, TR34/L98H mutation, 48 h, 0.5% BSA
[9] = NCPF2010, 48 h, read-out: IC90 (OD), strain AF72, G54E mutation, 48 h, 0.5% BSA
[10] = NCPF2010, 48 h, read-out: IC90 (OD), strain AF91, M220V mutation, 48 h, 0.5% BSA
[11] = NCPF2010, 48 h, read-out: IC90 (OD), strain AF293, no resistance mechanism, 48 h, 0.5% BSA
[12] = NCPF2010, 48 h, read-out: IC90 (OD), strain AF294, no resistance mechanism, 48 h, 0.5% BSA
[13] = NCPF2010, 48 h, read-out: IC90 (OD), strain NCPF2010, no resistance mechanism, 48 h, 0.5% BSA
[14] = NCPF2010, 48 h, read-out: IC90 (OD), strain TR34/L98H, TR34/L98H mutation, 48 h, 0.5% BSA
[15] = strain TR34/L98H, 48 h, 0.5% BSA
[16] = itraconazole-resistant strains with M220V and G54E mutations

| Compound | IC50 [1, 3] [µg/mL] | IC50 [1, 4] [µg/mL] | IC50 [1, 5] [µg/mL] | IC50 [1, 6] [µg/mL] | IC50 [1, 7] [µg/mL] | IC50 [1, 8] [µg/mL] | IC90 [1, 9] [µg/mL] | IC90 [1, 10] [µg/mL] | IC90 [1, 11] [µg/mL] | IC90 [1, 12] [µg/mL] | IC90 [1, 13] [µg/mL] | IC90 [1, 14] [µg/mL] | IC90 (OD) [1, 15] | MIC50 [2] [µg/mL] | MIC [2] [µg/mL] | MIC, Median ([2]; CLSI, determined visually, four strains) | IC50 ([1]; NCPF2010, read-out: IC50 (OD) values, range over strains, itraconazole-susceptible and -resistant A. fumigatus) [µg/mL] | fold more potent than posaconazole [1, 16] [fold] | fold more potent than voriconazole [1, 16] [fold] | fold more potent than posaconazole (IC50) ([1]; strain TR34/L98H) [fold] |
| --- | --- | --- | --- | --- | --- | --- | --- | --- | --- | --- | --- | --- | --- | --- | --- | --- | --- | --- | --- | --- |
| C[C@@H]1[C@H](O)[C@@H](C)/C=C/C=C/C=C/C=C/C=C/C=C/C=C/[C@H](O[C@@H]2O[C@H](C)[C@@H](O)[C@H](N)[C@@H]2O)C[C@@H]2O[C@](O)(C[C@@H](O)C[C@@H](O)[C@H](O)CC[C@@H](O)C[C@@H](O)CC(=O)O[C@H]1C)C[C@H](O)[C@H]2C(=O)O [Amphotericin B, amphotericin B] | 0.18 (≈ 0.195 µM) | 0.42 (≈ 0.455 µM) | 0.24 (≈ 0.26 µM) | 0.21 (≈ 0.227 µM) | 0.23 (≈ 0.249 µM) | 0.14 (≈ 0.152 µM) | 0.64 (≈ 0.693 µM) | > 1 | 0.85 (≈ 0.92 µM) | 0.79 (≈ 0.855 µM) | 0.48 (≈ 0.519 µM) | 0.29 (≈ 0.314 µM) |  |  |  |  |  |  |  |  |
| CC[C@H](C)C[C@H](C)CCCCCCCCC(=O)N[C@H]1C[C@@H](O)[C@@H](NCCN)NC(=O)[C@@H]2[C@@H](O)CCN2C(=O)[C@H]([C@H](O)CCN)NC(=O)[C@H]([C@H](O)[C@@H](O)c2ccc(O)cc2)NC(=O)[C@@H]2C[C@@H](O)CN2C(=O)[C@H]([C@@H](C)O)NC1=O [Caspofungin, caspofungin] | 0.1 (≈ 0.0915 µM) | 0.072 (≈ 0.0659 µM) | > 1 | > 1 | 0.11 (≈ 0.101 µM) | 0.082 (≈ 0.075 µM) | > 1 | > 1 | > 1 | > 1 | > 1 | > 1 | failed to achieve 90% inhibition |  |  |  |  |  |  |  |
| CCC(C)n1ncn(-c2ccc(N3CCN(c4ccc(OCC5COC(Cn6cncn6)(c6ccc(Cl)cc6Cl)O5)cc4)CC3)cc2)c1=O (stereo not drawn) [Itraconazole, itraconazole] | 0.43 (≈ 0.609 µM) | 0.26 (≈ 0.368 µM) | 0.032 (≈ 0.0453 µM) | 0.041 (≈ 0.0581 µM) | 0.057 (≈ 0.0808 µM) | 0.22 (≈ 0.312 µM) | > 1 | > 1 | 0.23 (≈ 0.326 µM) | 0.052 (≈ 0.0737 µM) | 0.085 (≈ 0.12 µM) | > 1 | failed to achieve 90% inhibition |  |  |  |  |  |  |  |
| Cc1cc(N2CCN(c3ccc(C(=O)Nc4ccc(F)cc4)cc3)CC2)ccc1OC[C@@H]1CO[C@@](Cn2cncn2)(c2ccc(F)cc2F)C1 [PC945, 4-[4-(4-{[(3R,5R)-5-(2,4-difluorophenyl)-5-(1H-1,2,4-triazol-1-ylmethyl)oxolan-3-yl]methoxy}-3-methylphenyl)piperazin-1-yl]-N-(4-fluorophenyl)benzamide] | 0.0061 (≈ 0.00893 µM) | 0.0081 (≈ 0.0119 µM) | 0.0012 (≈ 0.00176 µM) | 0.002 (≈ 0.00293 µM) | 0.0084 (≈ 0.0123 µM) | 0.034 (≈ 0.0498 µM) | 0.029 (≈ 0.0425 µM) | 0.059 (≈ 0.0864 µM) | 0.0041 (≈ 0.00601 µM) | 0.0043 (≈ 0.0063 µM) | 0.01 (≈ 0.0146 µM) | > 1 | failed to achieve 90% inhibition; also recorded: did not achieve 90% inhibition of growth | 0.011 (≈ 0.0161 µM) | 0.031 (≈ 0.0454 µM) | 0.031* μg/ml | 0.0012 to 0.034 (≈ 0.00176 to 0.0498 µM) | 2 | 6 | 2.5 |
| CC[C@@H]([C@H](C)O)n1ncn(-c2ccc(N3CCN(c4ccc(OC[C@@H]5CO[C@@](Cn6cncn6)(c6ccc(F)cc6F)C5)cc4)CC3)cc2)c1=O [Posaconazole, posaconazole] | 0.032 (≈ 0.0457 µM) | 0.024 (≈ 0.0342 µM) | 0.01 (≈ 0.0143 µM) | 0.0056 (≈ 0.00799 µM) | 0.0086 (≈ 0.0123 µM) | 0.086 (≈ 0.123 µM) | 0.19 (≈ 0.271 µM) | 0.12 (≈ 0.171 µM) | 0.028 (≈ 0.04 µM) | 0.011 (≈ 0.0157 µM) | 0.014 (≈ 0.02 µM) | 0.13 (≈ 0.186 µM) |  | 0.015 (≈ 0.0214 µM) | 0.047 (≈ 0.0671 µM) |  |  |  |  |  |
| C[C@@H](c1ncncc1F)[C@](O)(Cn1cncn1)c1ccc(F)cc1F [Voriconazole, voriconazole] | 0.019 (≈ 0.0544 µM) | 0.12 (≈ 0.344 µM) | 0.25 (≈ 0.716 µM) | 0.082 (≈ 0.235 µM) | 0.16 (≈ 0.458 µM) | > 1 | 0.062 (≈ 0.177 µM) | 0.38 (≈ 1.09 µM) | 0.74 (≈ 2.12 µM) | 0.27 (≈ 0.773 µM) | 0.2 (≈ 0.573 µM) | > 1 | failed to achieve 90% inhibition | 0.14 (≈ 0.401 µM) | 0.5 (≈ 1.43 µM) |  |  |  |  |  |

≈ marks a conversion by molar mass, not a printed value. Entries after “also recorded” stand apart in the source; their conditions may differ. Where two headings read alike, the source gives them in different places. Marks after values point to notes of the source that are not given here.
